Experimental findings from patent EP4814006A2 (NAVIGO PROTEINS GMBH, dated 2026) are described below.

The target in this assay is T1, VEGF (vascular endothelial growth factor) (human, UniProt P15692-4 27-191, limits assumed).
T1 construct: also called VEGF-A
T1 sequence (looked up): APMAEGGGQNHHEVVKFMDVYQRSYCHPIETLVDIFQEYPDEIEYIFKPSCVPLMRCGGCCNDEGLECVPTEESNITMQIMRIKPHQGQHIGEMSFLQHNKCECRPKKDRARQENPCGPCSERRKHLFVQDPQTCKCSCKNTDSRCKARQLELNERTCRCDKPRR
As to the kind of experiment: ELISA per the heading of Example 3; the format of the VEGF assay is not described.

Where only a bound is given, the exact number is not on record here.

The EC50 is the concentration needed to bring the measured effect to its halfway point. Low readings indicate greater potency, high ones weaker potency.

B1: Fusion protein SEQ ID NO: 8 (Aflibercept fused through a 15 amino acid GS-linker to the hyaluronic acid binding protein of SEQ ID NO: 4) (Fc fusion)
chain: SDTGRPFVEMYSEIPEIIHMTEGRELVIPCRVTSPNITVTLKKFPLDTLIPDGKRIIWDSRKGFIISNATYKEIGLLTCEATVNGHLYKTNYLTHRQTNTIIDVVLSPSHGIELSVGEKLVLNCTARTELNVGIDFNWEYPSSKHQHKKLVNRDLKTQSGSEMKKFLSTLTIDGVTRSDQGLYTCAASSGLMTKKNSTFVRVHEK[sequence of human IgG1 Fc not given]GGGSGGGGSGGGGSGVYHREAPSGKYGLTYAEAKAVCEFEGGHLATYKQLEAAQKIGFHVCAAGWMAKGRVGYPIVKPGPNCGFGKTGIIDYGIRLNRSERWDAYCYNPHA
notes: It forms a homodimer and was expressed in HEK293 cells
For B1, the EC50 is less than 1 nM.

B2: Fusion protein SEQ ID NO: 7 (Aflibercept fused through a 15 amino acid GS-linker to the hyaluronic acid binding protein of SEQ ID NO: 3) (Fc fusion)
chain: SDTGRPFVEMYSEIPEIIHMTEGRELVIPCRVTSPNITVTLKKFPLDTLIPDGKRIIWDSRKGFIISNATYKEIGLLTCEATVNGHLYKTNYLTHRQTNTIIDVVLSPSHGIELSVGEKLVLNCTARTELNVGIDFNWEYPSSKHQHKKLVNRDLKTQSGSEMKKFLSTLTIDGVTRSDQGLYTCAASSGLMTKKNSTFVRVHEK[sequence of human IgG1 Fc not given]GGGSGGGGSGGGGSGVFHLESPSGKYGLTFDEAREACEAEGATLATYKQLEAAQKAGFHLCSAGWLATGRVAYPTAKPSPNCGSGRVGIVDYGPRPNKSEQWDAYCYRPHA
notes: as for B1
For the molecule B2, the concentration for a half-maximal effect (EC50) is less than 1 nM.
